# Measured values from the supplement of paper PMC10724272.
# Compound: CCCCCOc1ccc(-c2cc(-c3ccc(C(=O)N[C@H]4C[C@@H](O)[C@@H](O)NC(=O)[C@@H]5[C@@H](O)[C@@H](C)CN5C(=O)[C@H]([C@H](O)CC(N)=O)NC(=O)[C@H]([C@H](O)[C@@H](O)c5ccc(O)c(OS(=O)(=O)O)c5)NC(=O)[C@@H]5C[C@@H](O)CN5C(=O)[C@H]([C@@H](C)O)NC4=O)cc3)no2)cc1 [micafungin]
# Experiment: CLSI broth microdilution.
row,Test System,MIC
1,"Candida tropicalis isolate 127 (ERG11 copies: 2, Erg11p: no key change)",0.03 mg/L [S]
2,"Candida tropicalis isolate 110 (ERG11 copies: 2, Erg11p: no key change)",0.03 mg/L [S]
3,"Candida tropicalis isolate 442 (ERG11 copies: 2, Erg11p: no key change)",0.03 mg/L [S]
4,"Candida tropicalis isolate 260 (ERG11 copies: 2, Erg11p: no key change)",0.015 mg/L [S]
5,"Candida tropicalis isolate 236 (ERG11 copies: 2, Erg11p: no key change)",0.03 mg/L [S]
6,"Candida tropicalis isolate 77 (ERG11 copies: 7, Erg11p: Y132F, S154F (heterozygous))",0.06 mg/L [S]
7,"Candida tropicalis isolate 199 (ERG11 copies: 2, Erg11p: Y257H (homozygous))",0.03 mg/L [S]
8,"Candida tropicalis isolate 406 (ERG11 copies: 2, Erg11p: no key change)",0.03 mg/L [S]
9,"Candida tropicalis isolate 15 (ERG11 copies: 2, Erg11p: no key change)",0.03 mg/L [S]

# Compound: C[C@@H]1[C@H](O)[C@@H](C)/C=C/C=C/C=C/C=C/C=C/C=C/C=C/[C@H](O[C@@H]2O[C@H](C)[C@@H](O)[C@H](N)[C@@H]2O)C[C@@H]2O[C@](O)(C[C@@H](O)C[C@@H](O)[C@H](O)CC[C@@H](O)C[C@@H](O)CC(=O)O[C@H]1C)C[C@H](O)[C@H]2C(=O)O [amphotericin B]
# Experiment: CLSI broth microdilution.
row,Test System,MIC
1,"Candida tropicalis isolate 55 (ERG11 copies: 2, Erg11p: Y132F, S154F (heterozygous))",1 mg/L [S]
2,"Candida tropicalis isolate 302 (ERG11 copies: 2, Erg11p: no key change)",1 mg/L [S]
3,"Candida tropicalis isolate 12 (ERG11 copies: 2, Erg11p: no key change)",1 mg/L [S]
4,"Candida tropicalis isolate 354 (ERG11 copies: 2, Erg11p: Y132F, S154F (homozygous))",1 mg/L [S]
5,"Candida tropicalis isolate 447 (ERG11 copies: 2, Erg11p: no key change)",0.25 mg/L [S]
6,"Candida tropicalis isolate 350 (ERG11 copies: 2, Erg11p: no key change)",0.5 mg/L [S]
7,"Candida tropicalis isolate 277 (ERG11 copies: 2, Erg11p: no key change)",0.5 mg/L [S]
8,"Candida tropicalis isolate 117 (ERG11 copies: 8, Erg11p: Y132F, S154F, P397S (heterozygous))",2 mg/L [S]
9,"Candida tropicalis isolate 216 (ERG11 copies: 2, Erg11p: no key change)",1 mg/L [S]
10,"Candida tropicalis isolate 306 (ERG11 copies: 2, Erg11p: no key change)",1 mg/L [S]
11,"Candida tropicalis isolate 380 (ERG11 copies: 7, Erg11p: Y132F, S154F (heterozygous))",1 mg/L [S]
12,"Candida tropicalis isolate 1 (ERG11 copies: 2, Erg11p: no key change)",0.5 mg/L [S]
13,"Candida tropicalis isolate 369 (ERG11 copies: 2, Erg11p: no key change)",1 mg/L [S]
14,"Candida tropicalis isolate 280 (ERG11 copies: 2, Erg11p: no key change)",1 mg/L [S]
15,"Candida tropicalis isolate 21 (ERG11 copies: 2, Erg11p: G464S (homozygous))",0.5 mg/L [S]
16,"Candida tropicalis isolate 308 (ERG11 copies: 2, Erg11p: no key change)",1 mg/L [S]
17,"Candida tropicalis isolate 74 (ERG11 copies: 2, Erg11p: no key change)",1 mg/L [S]
18,"Candida tropicalis isolate 91 (ERG11 copies: 2, Erg11p: no key change)",1 mg/L [S]

row,Test System,MIC
1,"Candida tropicalis isolate 228 (ERG11 copies: 2, Erg11p: no key change)",1 mg/L [S]
2,"Candida tropicalis isolate 85 (ERG11 copies: 2, Erg11p: no key change)",1 mg/L [S]
3,"Candida tropicalis isolate 273 (ERG11 copies: 2, Erg11p: no key change)",1 mg/L [S]
4,"Candida tropicalis isolate 13 (ERG11 copies: 2, Erg11p: no key change)",0.5 mg/L [S]
5,"Candida tropicalis isolate 244 (ERG11 copies: 2, Erg11p: no key change)",0.5 mg/L [S]
6,"Candida tropicalis isolate 294 (ERG11 copies: 2, Erg11p: no key change)",0.5 mg/L [S]
7,"Candida tropicalis isolate 25 (ERG11 copies: 2, Erg11p: no key change)",1 mg/L [S]
8,"Candida tropicalis isolate 71 (ERG11 copies: 2, Erg11p: no key change)",1 mg/L [S]
9,"Candida tropicalis isolate 232 (ERG11 copies: 2, Erg11p: no key change)",1 mg/L [S]
10,"Candida tropicalis isolate 127 (ERG11 copies: 2, Erg11p: no key change)",1 mg/L [S]
11,"Candida tropicalis isolate 110 (ERG11 copies: 2, Erg11p: no key change)",1 mg/L [S]
12,"Candida tropicalis isolate 442 (ERG11 copies: 2, Erg11p: no key change)",0.5 mg/L [S]
13,"Candida tropicalis isolate 260 (ERG11 copies: 2, Erg11p: no key change)",0.5 mg/L [S]
14,"Candida tropicalis isolate 236 (ERG11 copies: 2, Erg11p: no key change)",1 mg/L [S]
15,"Candida tropicalis isolate 77 (ERG11 copies: 7, Erg11p: Y132F, S154F (heterozygous))",0.5 mg/L [S]
16,"Candida tropicalis isolate 199 (ERG11 copies: 2, Erg11p: Y257H (homozygous))",1 mg/L [S]
17,"Candida tropicalis isolate 406 (ERG11 copies: 2, Erg11p: no key change)",1 mg/L [S]
18,"Candida tropicalis isolate 15 (ERG11 copies: 2, Erg11p: no key change)",0.5 mg/L [S]

# Compound: C[C@@H](c1ncncc1F)[C@](O)(Cn1cncn1)c1ccc(F)cc1F [voriconazole]
# Experiment: CLSI broth microdilution.
row,Test System,MIC
1,"Candida tropicalis isolate 55 (ERG11 copies: 2, Erg11p: Y132F, S154F (heterozygous))",0.5 µg/mL
2,"Candida tropicalis isolate 302 (ERG11 copies: 2, Erg11p: no key change)",0.06 mg/L [S]
3,"Candida tropicalis isolate 12 (ERG11 copies: 2, Erg11p: no key change)",0.06 mg/L [S]
4,"Candida tropicalis isolate 354 (ERG11 copies: 2, Erg11p: Y132F, S154F (homozygous))",2 mg/L [R]
5,"Candida tropicalis isolate 447 (ERG11 copies: 2, Erg11p: no key change)",2 mg/L [R]
6,"Candida tropicalis isolate 350 (ERG11 copies: 2, Erg11p: no key change)",0.03 mg/L [S]
7,"Candida tropicalis isolate 277 (ERG11 copies: 2, Erg11p: no key change)",0.06 mg/L [S]
8,"Candida tropicalis isolate 117 (ERG11 copies: 8, Erg11p: Y132F, S154F, P397S (heterozygous))",≥ 8 mg/L [R]
9,"Candida tropicalis isolate 216 (ERG11 copies: 2, Erg11p: no key change)",0.06 mg/L [S]
10,"Candida tropicalis isolate 306 (ERG11 copies: 2, Erg11p: no key change)",0.12 mg/L [S]
11,"Candida tropicalis isolate 380 (ERG11 copies: 7, Erg11p: Y132F, S154F (heterozygous))",≥ 8 mg/L [R]
12,"Candida tropicalis isolate 1 (ERG11 copies: 2, Erg11p: no key change)",0.12 mg/L [S]
13,"Candida tropicalis isolate 369 (ERG11 copies: 2, Erg11p: no key change)",0.12 mg/L [S]
14,"Candida tropicalis isolate 280 (ERG11 copies: 2, Erg11p: no key change)",0.06 mg/L [S]
15,"Candida tropicalis isolate 21 (ERG11 copies: 2, Erg11p: G464S (homozygous))",4 mg/L [R]
16,"Candida tropicalis isolate 308 (ERG11 copies: 2, Erg11p: no key change)",0.12 mg/L [S]
17,"Candida tropicalis isolate 74 (ERG11 copies: 2, Erg11p: no key change)",0.06 mg/L [S]
18,"Candida tropicalis isolate 91 (ERG11 copies: 2, Erg11p: no key change)",0.06 mg/L [S]

row,Test System,MIC
1,"Candida tropicalis isolate 228 (ERG11 copies: 2, Erg11p: no key change)",0.5 µg/mL
2,"Candida tropicalis isolate 85 (ERG11 copies: 2, Erg11p: no key change)",0.5 µg/mL
3,"Candida tropicalis isolate 273 (ERG11 copies: 2, Erg11p: no key change)",0.03 mg/L [S]
4,"Candida tropicalis isolate 13 (ERG11 copies: 2, Erg11p: no key change)",0.25 µg/mL
5,"Candida tropicalis isolate 244 (ERG11 copies: 2, Erg11p: no key change)",0.12 mg/L [S]
6,"Candida tropicalis isolate 294 (ERG11 copies: 2, Erg11p: no key change)",0.12 mg/L [S]
7,"Candida tropicalis isolate 25 (ERG11 copies: 2, Erg11p: no key change)",0.06 mg/L [S]
8,"Candida tropicalis isolate 71 (ERG11 copies: 2, Erg11p: no key change)",0.5 µg/mL
9,"Candida tropicalis isolate 232 (ERG11 copies: 2, Erg11p: no key change)",0.5 µg/mL
10,"Candida tropicalis isolate 127 (ERG11 copies: 2, Erg11p: no key change)",0.06 mg/L [S]
11,"Candida tropicalis isolate 110 (ERG11 copies: 2, Erg11p: no key change)",0.25 µg/mL
12,"Candida tropicalis isolate 442 (ERG11 copies: 2, Erg11p: no key change)",0.03 mg/L [S]
13,"Candida tropicalis isolate 260 (ERG11 copies: 2, Erg11p: no key change)",0.06 mg/L [S]
14,"Candida tropicalis isolate 236 (ERG11 copies: 2, Erg11p: no key change)",0.12 mg/L [S]
15,"Candida tropicalis isolate 77 (ERG11 copies: 7, Erg11p: Y132F, S154F (heterozygous))",≥ 8 mg/L [R]
16,"Candida tropicalis isolate 199 (ERG11 copies: 2, Erg11p: Y257H (homozygous))",2 mg/L [R]
17,"Candida tropicalis isolate 406 (ERG11 copies: 2, Erg11p: no key change)",0.12 mg/L [S]
18,"Candida tropicalis isolate 15 (ERG11 copies: 2, Erg11p: no key change)",0.12 mg/L [S]

# MIC of invasive clinical C. tropicalis isolates, CLSI broth microdilution (fluconazole 0.12-256 mg/L, up to 1,024 for the azole-resistant cluster and its neighbour group; other ranges not stated); higher = less susceptible. Call: susceptible or wild type [S] / resistant or non-wild type [R] by CLSI breakpoints or cut-offs; intermediate and dose-dependent carry no call. '<=' and '>=' at the end values are inferred; the source marks only some of them. Isolates are numbered anew.
